Experimental data from the supplement of paper PMC11417369.
This is one part of the list.

System: PF3D7_0420300 AP2 domain 1 (GST-tagged)
Test: gcPBM binding intensity (ln(normalized median fluorescence intensity)); higher = stronger DNA binding
Summary of the method: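 GST-tagged P. falciparum DNA-binding domains, expressed in E. coli (about 25 μg on average), were applied for 1 h to an Agilent 4 × 180k array of primer-extended double-stranded 36-bp intergenic genomic probes plus negative controls. The binding buffer was 1× PBS with 1% milk, 0.2 mg/ml BSA, 0.5% salmon testes DNA and 0.03% Triton X-100. Bound protein was detected with Alexa488 anti-GST antibody and scanned at 488 nm. Binding intensity is the highest Masliner-normalised natural-log median intensity across replicate spots of either probe orientation.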

Sequence	gcPBM binding intensity (ln)
AGTATATTAAAAAATACACACGTATTATATCTACAT [CACACA_site8844]	9.42
GTTCATAAATTAAACACACACACACCGCTGGATACC [CACACA_site5779]	10.1
TATTGTATATAATAAACACACAATATTAAAAATATA [CACACA_site1057]	9.4
TATTTAAAAAACACATGTACGAGTATTATATATAAA [XGTACX_site6654]	9.28
TTTTGTTGAAAAAAAAAAAAAAAATTAAATTAAATT [GTGCAC_negctrl_site636]	8.68
CATAGACACGAACATACACACGGACATACATACGGA [CACACA_site8101]	9.8
GTAACAAATTAATAGTGTACATATTTTAAAAAAATA [XGTACX_site7150]	9.14
AATGCAAAGGTGAAAGAACACACAAAAAAAAAAAAA [CACACA_site9333]	9.34
GTGTTAAATTTTTGAACATGCAAGTTTTATTATTGA [TGCATGCA_site478]	9.06
GAAACATACATTTTTTGTCCGTAAGTATTATAATAA [XGTACX_site3273]	9.24
ATACATCAAGGACACACACACACACCCACACCCACA [CACACA_site8013]	10.3
CTATGAATAGGAAAAAGTACTAAACCTTTATATATA [XGTACX_site5022]	9.07
ATTTTGCCTGACCCATGTACATATTATTTTTTGCAT [XGTACX_site2258]	9.93
CACATAAAAATTGTGTTGCACTTTTATTCTTATATC	9.34
AGTAGAATATCCCCTACACACCCAAATAATTTACAA [CACACA_site8339]	9.79
TCAAATATTCATAAATGTACATTTATTTTTCTCCTT [XGTACX_site5827]	9.28
TAACTTAATATTAATGCACACAATTTATATATATAT [CACACA_site3903]	9.38
AACTTACTTGGACATACACACATATATATATATATA [CACACA_site2978]	9.62
TTTATATATTTTAGGTGTACATAAATTTTTATATAT [XGTACX_site5597]	9.17
AGAACAATTCTGTGGTGTACCAAAAAAAATTTAATT [XGTACX_site8082]	9.13
TAAATGAATTTTACTATACACACGTATACATTTGTA [CACACA_site1210]	9.28
ATATTTAAATTTTGCACACGCATATGAAATTAGGAC [CACACA_site1035]	9.47
AAAATAAATAAATATACACACCATATTTATATTTTT [CACACA_site7361]	9.49

Sequence	gcPBM binding intensity (ln)
TACTACACACATTCATGTACTTGATAAATTAATGAT [XGTACX_site6444]	9.44
ATAACTAATATGAAATGTACCCATCAAAGTGTGCAT [XGTACX_site4463]	9.31
TAATTTGTTATTTATTGTACAAACATTATATGTTAA [XGTACX_site6637]	9.12
AAAATTAAAATACGTACACACCTTATCTTTTTGGCT [CACACA_site4311]	9.51
ATATTATAAATATAATGTACGTTTTAATTTCATGTT [XGTACX_site3557]	9.22
ATATATAATTATTGAAGTACTTGTTCATAAAATGGT [XGTACX_site5656]	9.25
TATATGAGCATAAAGACACACAAATAAAACCAAACA [CACACA_site3856]	9.81
AAAATAAAATGAAAACGTACATGATAAATTTTAATT [XGTACX_site4199]	9.49
ACGTTAGGCTTATTTGCACACTTGTATTATAATTTT [CACACA_site1317]	9.58
AAAAATATGAAAGTAACTAAGTTGTTATTGATAACA [CACACA_negctrl_site1608]	9.29
ATATTATCACAAGGTGGTACACAAAAAAAAAAAAAA [XGTACX_site8224]	9.12
TACTTTCACATTAAATGTACGTATAGTTTCATTCTT [XGTACX_site8528]	9.43
ATATTAAAAATATATACACACATATATATAAATATA [CACACA_site2257]	9.37
ATAAATATGGAGCACACACACATAAACATACAGATA [CACACA_site4395]	10.1
TTTGGAGAATTCATAGTGCATTTATTTATTGTTAAT	9.28
TATATTTAAGTACATAAATAAGCCCATTTACATACA [CACACA_negctrl_site1224]	9.18
CATACATACATACATACACACATATATAAATATATG [CACACA_site7028]	9.8
TAAGTGATCGCATAATGTACATATTATTTATTATTT [XGTACX_site3061]	9.12
TACATTTAAAAAAAAACACACATATTTATATTTATA [CACACA_site7236]	9.23
GGAAGGATATAACATACACACACACCCATATATATA [CACACA_site9376]	10
TTATGTATTTATTTATGTACTAATTGTATGCATATT [XGTACX_site6436]	9.33
TTTCCTGGTCAAGGGGTTACGGTTACGTCCTCTTGC [CACACA_negctrl_site856]	8.91
